Laboratory results from PubChem BioAssay AID1645886 (National Center for Advancing Translational Sciences (NCATS), 2021).
Several values for one entry are separate records, joined by “and”; a condition that tells them apart may be missing. Identical values can stand only once. In all, about 16,000 compounds went through this assay and about 260 (1.6%) were called active. This list was built around the results that the source calls inconclusive (neither active nor inactive); the mix of calls is not that of the screen. Calls come from the whole dose curve; as a rule, active = well fitted inhibition curve with a large enough effect; inconclusive = small, poorly fitted or top-dose-only effect; inactive = no such curve, though single readings can be large or run the other way. Where the call is inconclusive, the potency comes from a doubtful curve fit.

target: Rap guanine nucleotide exchange factor 4 (Homo sapiens) (UniProt Q8WZA2); assay: Validation qHTS for antagonist of cAMP-regulated guanine nucleotide exchange factor 4 (EPAC2); conditions: EPAC2 Rap1B BODIPY-GDP exchange, fluorescence; series mostly up to 112 µM; note: nearly all actives have a fitted effect of over 40% in size
Sequence of UniProt Q8WZA2 (Q8WZA2 whole entry, looked up): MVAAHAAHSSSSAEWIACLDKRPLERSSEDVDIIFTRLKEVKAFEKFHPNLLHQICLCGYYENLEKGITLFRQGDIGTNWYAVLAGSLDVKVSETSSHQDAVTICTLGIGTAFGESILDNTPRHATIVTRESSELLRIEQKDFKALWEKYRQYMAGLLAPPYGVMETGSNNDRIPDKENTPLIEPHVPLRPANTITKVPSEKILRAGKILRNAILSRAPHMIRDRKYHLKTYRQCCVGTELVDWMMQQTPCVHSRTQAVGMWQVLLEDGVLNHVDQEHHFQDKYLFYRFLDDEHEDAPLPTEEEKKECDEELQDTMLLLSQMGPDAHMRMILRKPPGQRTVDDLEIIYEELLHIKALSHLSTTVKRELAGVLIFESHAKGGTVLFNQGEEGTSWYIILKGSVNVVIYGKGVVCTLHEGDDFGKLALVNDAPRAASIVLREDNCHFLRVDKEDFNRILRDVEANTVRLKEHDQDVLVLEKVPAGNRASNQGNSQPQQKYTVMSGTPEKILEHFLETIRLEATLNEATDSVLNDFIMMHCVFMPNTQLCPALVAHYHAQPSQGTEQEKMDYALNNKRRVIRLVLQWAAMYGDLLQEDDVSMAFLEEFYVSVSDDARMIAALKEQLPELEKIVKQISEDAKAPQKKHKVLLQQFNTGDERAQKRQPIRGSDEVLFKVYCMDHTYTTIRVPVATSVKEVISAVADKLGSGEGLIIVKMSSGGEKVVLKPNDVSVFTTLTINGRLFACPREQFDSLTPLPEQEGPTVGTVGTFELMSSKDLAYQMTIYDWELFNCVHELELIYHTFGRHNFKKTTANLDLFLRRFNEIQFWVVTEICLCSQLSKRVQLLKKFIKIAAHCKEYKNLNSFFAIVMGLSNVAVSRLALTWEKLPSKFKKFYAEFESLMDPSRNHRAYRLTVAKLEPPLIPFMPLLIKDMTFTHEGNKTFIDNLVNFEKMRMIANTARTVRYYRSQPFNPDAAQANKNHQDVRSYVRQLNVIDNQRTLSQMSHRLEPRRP
Method in brief: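 Normalized against a 6.5 mM cAMP agonist control, compounds were tested on 100 nM EPAC2 exchanging Rap1B-bound BODIPY-GDP (250 nM) for 50 uM GDP. Fluorescence drop (ex 480, em 540 nm) was tracked at room temperature over 30 min at 5-min intervals.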
Potency is the fitted concentration of half-maximal effect; tags give direction and shape of the fitted curve.

| Structure (SMILES) | Potency |
| --- | --- |
| c1ccc([C@H]2CN3CCSC3=N2)cc1 | inconclusive: 89.1 µM [inhibitor, single point] |
| CN1C[C@H]2c3ccccc3Oc3ccc(Cl)cc3[C@@H]2C1 | inconclusive: 20 µM [inhibitor, partial curve, poor fit] |
| O=C1CCNCCN1[C@H](CO)Cc1ccccc1 | inactive |
| O=C(NCc1nnc2n1CCN(C(=O)c1cccc(Cl)c1)CC2)C1CC1 | inactive |
| CN(C)c1ncc2nc(-c3ccc(F)cc3)c(=O)n(-c3ccccc3)c2n1 | inactive |
| CCCCC[C@H]1CN(Cc2ccccc2)C(=O)[C@@H]1CC(=O)NCc1ccc(OC)cc1 | active: 22.4 µM |
| O=C1NC(=O)/C(=C/c2ccc3nccnc3c2)S1 | inactive |
| NC(N)=NN=C(/C=C/c1ccc([N+](=O)[O-])o1)/C=C/c1ccc([N+](=O)[O-])o1 | inconclusive: 50.1 µM [inhibitor, partial curve, poor fit] |
| COc1ccc(-c2nc3cc(C)ccc3cc2CN(C(=O)c2ccc(C)s2)C2CC2)cc1OC | inconclusive: 6.31 µM [inhibitor, full curve] |
| CCOC(=O)N1CCN(Cc2ccc3c(c2)CN(C(=O)c2noc4c2CCCC4)CCO3)CC1 | inactive |
| c1ccc2c(c1)Sc1ccccc1N2CCN1CCCC1 | inconclusive: 70.8 µM [inhibitor, partial curve, poor fit] |
| O=C(Nc1ccc(Oc2ccc(Cl)cc2)c(Cl)c1)c1cc(I)cc(I)c1O | inactive |
| Fc1cccc(/C=N\N=C/c2cccc(F)c2)c1 | inconclusive: 89.1 µM [inhibitor, single point] |
| c1ccc2cnccc2c1 | inconclusive: 39.8 µM [inhibitor, single point] |
| Nc1nc2n[nH]nc2c(=O)[nH]1 | inconclusive: 0.447 µM [inhibitor, full curve, poor fit] |
| Cc1ccc(-c2ccnc(-n3ncc(C(=O)N(C)CC4CCCN(C)C4)c3C)n2)o1 (centres undefined) | inconclusive: 1 µM [inhibitor, full curve, poor fit] |
| O=P(O)(O)OC[C@H](O)CO | inconclusive: 56.2 µM [inhibitor, single point] |
| CC(=O)Nc1ccccc1-c1nc(CNC(=O)c2cccc(-n3cccn3)c2)c(C)o1 | inconclusive: 100 µM [inhibitor, single point] |
| Cc1nc(C)n(CC(=O)N2CCOc3ccc(CN4CCN(C)C[C@@H]4c4ccccc4)cc3C2)n1 | inconclusive: 89.1 µM [inhibitor, single point] |
| Cc1cccc(CNc2ccnc(-c3cccc(C#N)c3)n2)c1 | inconclusive: 56.2 µM [inhibitor, partial curve] |

| Structure (SMILES) | Potency |
| --- | --- |
| C=CCN([C@@H](CC(C)C)C(=O)OC)S(=O)(=O)N(CC=C)[C@@H](CC(C)C)C(=O)OC | inconclusive: 22.4 µM [inhibitor, full curve, poor fit] |
| CN1CCN(c2ncnc3ccc(-c4ccccc4Cl)cc23)CC1 | inconclusive: 35.5 µM [inhibitor, full curve, poor fit] |
| COc1ccc(C(OCCN2CCC[C@@H](C(=O)O)C2)(c2ccc(OC)cc2)c2ccc(OC)cc2)cc1 | inconclusive: 44.7 µM [inhibitor, partial curve] |
| COc1cc(=O)n2c(c1C(=O)N(C)Cc1nonc1C)CCN(Cc1cc(C)c(C)cc1C)CC2 | inconclusive: 22.4 µM [inhibitor, partial curve, poor fit] |
| N#Cc1cccc(NC(=O)N2CC[C@@]3(CCCN(S(=O)(=O)c4ccccc4)C3)C2)c1 | inconclusive: 100 µM [inhibitor, partial curve, poor fit] |
| COc1cccc(CN2CCCC(c3nc(-c4ccncc4)ncc3-c3ccccc3)C2)c1O (centres undefined) | inactive |
| CC(=O)OCC(=O)[C@@]1(O)CCC2C3CCC4=CC(=O)CC[C@]4(C)C3C(=O)C[C@]21C (some centres undefined) | inactive |
| CCCNCC(O)COc1ccccc1C(=O)CCc1ccccc1 (centres undefined) | inconclusive: 100 µM [inhibitor, partial curve, poor fit] |
| O=S1(=O)CCOC[C@H](CC2CCCCC2)N1Cc1ccccc1 | inconclusive: 15.8 µM [inhibitor, partial curve, poor fit] |
| O=C([C@@H]1CC=C[C@@H]2CCN(C3CC3)C(=O)[C@@H]21)N1CCN(c2ccccc2)CC1 | inconclusive: 89.1 µM [inhibitor, partial curve, poor fit] |
| Cc1cc(C(=O)NCc2nc(-c3ccccc3NC(=O)C3CCCO3)oc2C)nc(C)n1 (centres undefined) | inconclusive: 2.82 µM [inhibitor, full curve, poor fit] |
| O=C(c1cc(C(F)(F)F)cc(C(F)(F)F)c1)N1CCC[C@@]2(CCN(Cc3nccs3)C2)C1 | inconclusive: 44.7 µM [inhibitor, partial curve, poor fit] |
| CCCS(=O)(=O)NCc1c(C)ncc2c1CCN(C(=O)c1cccc(-c3ccccc3F)c1)C2 | inconclusive: 79.4 µM [inhibitor, partial curve] |
| O=C1c2ccccc2C(=O)c2c(O)ccc(O)c21 | inactive |
| COC(=O)Nc1nc2ccc(S(=O)c3ccccc3)cc2[nH]1 (centres undefined) | inconclusive: 70.8 µM [inhibitor, single point] |
| CCn1cc(C(=O)O)c(=O)c2cc3c(cc21)OCO3 | inconclusive: 20 µM [inhibitor, single point] |
| COc1cccc(C(=O)NCc2nc(-c3cccc(NC(=O)c4ccoc4C)c3)oc2C)c1 | inconclusive: 100 µM [inhibitor, single point] |
| O=c1cc(-c2cccc(O)c2)oc2cc(O)ccc12 | inconclusive: 100 µM [inhibitor, partial curve, poor fit] |
| COc1cc(=O)n2c(c1C(=O)N(C)Cc1nccs1)CCN(Cc1cc3ccccc3s1)CC2 | inconclusive: 0.141 µM [inhibitor, full curve, poor fit] |
| CCn1ccnc1CC1COc2ccccc2O1 (centres undefined) | inconclusive: 39.8 µM [inhibitor, partial curve] |

| Structure (SMILES) | Potency |
| --- | --- |
| O=C(c1ccc(Cn2cnnn2)cc1)N1CCOc2ccc(C(O)C3CCCCC3)cc2C1 (centres undefined) | inconclusive: 50.1 µM [inhibitor, partial curve, poor fit] |
| CN(C)c1ccc(/C=C/c2ccnc3ccc4ccccc4c23)cc1 | inconclusive: 56.2 µM [inhibitor, partial curve, poor fit] |
| Cc1cnc(SCc2ccccn2)nc1C1CCCN(C(=O)c2cc3ccccc3oc2=O)C1 (centres undefined) | inactive |
| O=C1CC2(CCCC2)CC(=O)N1CCCCN1CCN(c2ncccn2)CC1 | inconclusive: 100 µM [inhibitor, partial curve, poor fit] |
| Cc1cccc(C#Cc2ccccc2)n1 | inconclusive: 63.1 µM [inhibitor, partial curve, poor fit] |
| COc1cccc(Cn2c(=O)c(C)nc3cnc(OC)nc32)c1 | inconclusive: 79.4 µM [inhibitor, partial curve, poor fit] |
| Cc1cnc(SCc2ccccn2)nc1C1CCCN(C(=O)c2noc3c2CCCC3)C1 (centres undefined) | inconclusive: 89.1 µM [inhibitor, single point] |
| COCc1c(C(=O)N2CCC(c3ccccc3)CC2)cnn1-c1nccc(-c2cc(C)sc2C)n1 | inconclusive: 56.2 µM [inhibitor, partial curve, poor fit] |
| CC(=O)N1CCN(C(=O)c2sc3ncnc(NCC4CCCO4)c3c2C)CC1 (centres undefined) | inconclusive: 1.78 µM [inhibitor, partial curve, poor fit] |
| Cc1ccc(SC[C@H](Cc2ccccc2)N2CC[C@@H](C)CCC2=O)cc1 | inconclusive: 79.4 µM [inhibitor, single point] |
| C=CCN1CCc2c(cc(O)c(O)c2Br)[C@@H](c2ccccc2)C1 | inconclusive: 56.2 µM [inhibitor, partial curve, poor fit] and inconclusive: 50.1 µM [inhibitor, single point] |
| O=C(c1csnn1)N1CCC2(CC1)CN(Cc1cc(C(F)(F)F)cc(C(F)(F)F)c1)C2 | inconclusive: 89.1 µM [inhibitor, single point] |
| CO[C@H]1C[C@@H]2CC[C@@H](C)[C@@](O)(O2)C(=O)C(=O)N2CCCC[C@H]2C(=O)O[C@H](C(C)C[C@H]2CC[C@@H](O)[C@H](OC)C2)CC(=O)[C@H](C)/C=C(\C)[C@@H](O)[C@@H](OC)C(=O)[C@H](C)C[C@H](C)/C=C/C=C/C=C/1C (some centres undefined) | inconclusive: 22.4 µM [inhibitor, full curve, poor fit] |
| CCCCCCCCCNC(=O)[C@H](NC(=O)COc1ccccc1)[C@@H]1NC(C(=O)OC)C(C)(C)S1 (some centres undefined) | inconclusive: 10 µM [inhibitor, partial curve, poor fit] |
| COc1cccc(Nc2ncc3nc(-c4cc(F)cc(F)c4)c(=O)n(CCC#N)c3n2)c1 | inconclusive: 15.8 µM [inhibitor, full curve] |
| CCN1/C(=C/C=C/c2sc3ccccc3[n+]2CC)Sc2ccccc21 | inconclusive: 63.1 µM [inhibitor, partial curve, poor fit] |
| CCCCCCCCCCCCCCCCCC(=O)OCC(C)O (centres undefined) | inconclusive: 56.2 µM [inhibitor, partial curve, poor fit] |
| FC(F)(F)c1ccccc1-c1cc(NCc2ccccc2)ncn1 | inconclusive: 50.1 µM [inhibitor, partial curve] |
| COC(=O)C(c1ccccc1Cl)N1CCc2sccc2C1 (centres undefined) | inconclusive: 15.8 µM [inhibitor, partial curve, poor fit] and inconclusive: 3.55 µM [inhibitor, full curve, poor fit] |
